Test results from PMC6753081 (Nature Communications, 2019).

Biological target: T1, A. fumigatus CN/FKBP12 complex (CnA/CnB/AfFKBP12) (Aspergillus fumigatus, UniProt Q4WDF2+Q4WLV6+Q4WUR1)
T1 construct: gene cnaA
Experiment: complex formation on recombinant expression
Type: binding
Settings: ternary complex formed in presence of compound; not crystallized

C=CC[C@@H]1/C=C(\C)C[C@H](C)C[C@H](OC)[C@H]2O[C@@](O)(C(=O)C(=O)N3CCCC[C@H]3C(=O)O[C@H](/C(C)=C/[C@@H]3CC[C@@H](O)[C@H](OC)C3)[C@H](C)[C@@H](O)C/C1=N/NC(C)=O)[C@H](C)C[C@@H]2OC [APX879]
complex formation on recombinant expression: complex formation between A. fumigatus CN and FKBP12 in the presence of APX879
